Results from the supplement of paper PMC9151546.
Single values are uncertain, as repeats are few or missing.

How the values were obtained:
CHO-K1 [1] = assay: micronucleus frequency (% of nucleated events); higher = more micronuclei (genotoxic)
CHO-K1 [2] = assay: relative survival (nuclei to bead ratio vs DMSO control) (% of vehicle control); higher = more surviving cells
Protocol: (§1)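 Flow-cytometric in vitro micronucleus assay (Litron MicroFlow) in CHO-K1 cells in 96-well plates, 19 concentrations (4.5-200 µM, n=1 per concentration). Without S9, cells were exposed for 24 h and sampled at 48 h. With Aroclor 1254-induced rat liver S9, cells were exposed for 3-4 h and sampled at 27-28 h. Read-outs are %MN and %hypodiploid nuclei relative to nucleated events, and relative survival as the nuclei-to-bead ratio versus the 1% DMSO vehicle control (x100).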

CHO-K1 [3] = assay: hypodiploid nuclei frequency (% of nucleated events); higher = more hypodiploid events (aneugenic)
Protocol: as §1
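For hypodiploid nuclei frequency (% of nucleated events) in this document: hypodiploid nuclei gated on a flow cytometer with 488 nm excitation after SYTOX Green staining, cultures at 37 °C, positive controls vinblastine without S9 and cyclophosphamide with S9.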
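For micronucleus frequency (% of nucleated events) in this document: cells lysed with nuclei stained by SYTOX Green, then micronucleus-gated events counted against nucleated events by flow cytometry with 488 nm excitation.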
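For relative survival (nuclei to bead ratio vs DMSO control) in this document: Lysed-cell nuclei stained with SYTOX Green and counted against counting beads by flow cytometry at 488 nm excitation, with vinblastine (no S9) and cyclophosphamide (plus S9) as positive controls.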

Clc1ccc(Cl)cc1 [1,4-Dichlorobenzene]
Conditions	hypodiploid nuclei frequency, CHO-K1 [3] [%]	micronucleus frequency, CHO-K1 [1] [%]	relative survival, CHO-K1 [2]
concentration: 4.5 (µM), S9 metabolic activation: with S9, exposure time: 3-4 hours	0.24	1.46	119
concentration: 4.5 (µM), S9 metabolic activation: without S9, exposure time: 24 hours	1.2	1.36	99
concentration: 5.63 (µM), S9 metabolic activation: with S9, exposure time: 3-4 hours	0.1	1.3	89.8
concentration: 5.63 (µM), S9 metabolic activation: without S9, exposure time: 24 hours	1.08	1.56	107
concentration: 7.04 (µM), S9 metabolic activation: with S9, exposure time: 3-4 hours	0.28	1.52	90.6
concentration: 7.04 (µM), S9 metabolic activation: without S9, exposure time: 24 hours	0.78	1.26	97.8
concentration: 8.8 (µM), S9 metabolic activation: with S9, exposure time: 3-4 hours	0.14	1.04	90.1
concentration: 8.8 (µM), S9 metabolic activation: without S9, exposure time: 24 hours	1.02	1.06	97.4
concentration: 11 (µM), S9 metabolic activation: with S9, exposure time: 3-4 hours	0.3	1.42	82.4
concentration: 11 (µM), S9 metabolic activation: without S9, exposure time: 24 hours	0.64	1.42	85
concentration: 13.7 (µM), S9 metabolic activation: with S9, exposure time: 3-4 hours	0.26	1.42	105
concentration: 13.7 (µM), S9 metabolic activation: without S9, exposure time: 24 hours	0.86	1.16	93.1
concentration: 17.2 (µM), S9 metabolic activation: with S9, exposure time: 3-4 hours	0.24	1.2	102
concentration: 17.2 (µM), S9 metabolic activation: without S9, exposure time: 24 hours	0.72	1.12	90.2
concentration: 21.5 (µM), S9 metabolic activation: with S9, exposure time: 3-4 hours	0.22	1.34	87.6
concentration: 21.5 (µM), S9 metabolic activation: without S9, exposure time: 24 hours	0.82	0.76	102
concentration: 26.8 (µM), S9 metabolic activation: with S9, exposure time: 3-4 hours	0.2	1.22	124
concentration: 26.8 (µM), S9 metabolic activation: without S9, exposure time: 24 hours	1.14	1.18	75.1
concentration: 33.6 (µM), S9 metabolic activation: with S9, exposure time: 3-4 hours	0.42	1.74	120
concentration: 33.6 (µM), S9 metabolic activation: without S9, exposure time: 24 hours	1.9	1.22	71.9
concentration: 41.9 (µM), S9 metabolic activation: with S9, exposure time: 3-4 hours	0.18	1.94	143
concentration: 41.9 (µM), S9 metabolic activation: without S9, exposure time: 24 hours	1.44	0.88	96.2
concentration: 52.4 (µM), S9 metabolic activation: with S9, exposure time: 3-4 hours	0.22	1.56	112
concentration: 52.4 (µM), S9 metabolic activation: without S9, exposure time: 24 hours	0.96	1.34	92
concentration: 65.5 (µM), S9 metabolic activation: with S9, exposure time: 3-4 hours	0.3	1.88	115
concentration: 65.5 (µM), S9 metabolic activation: without S9, exposure time: 24 hours	1.02	1.7	98.6
concentration: 81.9 (µM), S9 metabolic activation: with S9, exposure time: 3-4 hours	0.28	1.72	94.1
concentration: 81.9 (µM), S9 metabolic activation: without S9, exposure time: 24 hours	0.94	1.22	104
concentration: 102 (µM), S9 metabolic activation: with S9, exposure time: 3-4 hours	0.26	1.3	103
concentration: 102 (µM), S9 metabolic activation: without S9, exposure time: 24 hours	1.18	1.56	85.6
concentration: 128 (µM), S9 metabolic activation: with S9, exposure time: 3-4 hours	0.28	1.92	114
concentration: 128 (µM), S9 metabolic activation: without S9, exposure time: 24 hours	1.34	1.96	95.4
concentration: 160 (µM), S9 metabolic activation: with S9, exposure time: 3-4 hours	0.32	1.88	94.6
concentration: 160 (µM), S9 metabolic activation: without S9, exposure time: 24 hours	1.18	1.48	99.9
concentration: 200 (µM), S9 metabolic activation: with S9, exposure time: 3-4 hours	0.36	1.64	91.1
concentration: 200 (µM), S9 metabolic activation: without S9, exposure time: 24 hours	1.4	2	79.5
